Hit rate of the full screen: of about 310,000 compounds, about 2,200 (0.71%) showed an effect of 50% or more. The effect is printed as a negative number. This is one part of the list.
The compounds below were run against human ether-à-go-go-related gene (hERG) potassium channel (human, UniProt Q12809) (assay: primary screen, population patch clamp on CHO cells stably expressing hERG).
Chain of human ether-à-go-go-related gene (hERG) potassium channel (Q12809 whole entry, looked up): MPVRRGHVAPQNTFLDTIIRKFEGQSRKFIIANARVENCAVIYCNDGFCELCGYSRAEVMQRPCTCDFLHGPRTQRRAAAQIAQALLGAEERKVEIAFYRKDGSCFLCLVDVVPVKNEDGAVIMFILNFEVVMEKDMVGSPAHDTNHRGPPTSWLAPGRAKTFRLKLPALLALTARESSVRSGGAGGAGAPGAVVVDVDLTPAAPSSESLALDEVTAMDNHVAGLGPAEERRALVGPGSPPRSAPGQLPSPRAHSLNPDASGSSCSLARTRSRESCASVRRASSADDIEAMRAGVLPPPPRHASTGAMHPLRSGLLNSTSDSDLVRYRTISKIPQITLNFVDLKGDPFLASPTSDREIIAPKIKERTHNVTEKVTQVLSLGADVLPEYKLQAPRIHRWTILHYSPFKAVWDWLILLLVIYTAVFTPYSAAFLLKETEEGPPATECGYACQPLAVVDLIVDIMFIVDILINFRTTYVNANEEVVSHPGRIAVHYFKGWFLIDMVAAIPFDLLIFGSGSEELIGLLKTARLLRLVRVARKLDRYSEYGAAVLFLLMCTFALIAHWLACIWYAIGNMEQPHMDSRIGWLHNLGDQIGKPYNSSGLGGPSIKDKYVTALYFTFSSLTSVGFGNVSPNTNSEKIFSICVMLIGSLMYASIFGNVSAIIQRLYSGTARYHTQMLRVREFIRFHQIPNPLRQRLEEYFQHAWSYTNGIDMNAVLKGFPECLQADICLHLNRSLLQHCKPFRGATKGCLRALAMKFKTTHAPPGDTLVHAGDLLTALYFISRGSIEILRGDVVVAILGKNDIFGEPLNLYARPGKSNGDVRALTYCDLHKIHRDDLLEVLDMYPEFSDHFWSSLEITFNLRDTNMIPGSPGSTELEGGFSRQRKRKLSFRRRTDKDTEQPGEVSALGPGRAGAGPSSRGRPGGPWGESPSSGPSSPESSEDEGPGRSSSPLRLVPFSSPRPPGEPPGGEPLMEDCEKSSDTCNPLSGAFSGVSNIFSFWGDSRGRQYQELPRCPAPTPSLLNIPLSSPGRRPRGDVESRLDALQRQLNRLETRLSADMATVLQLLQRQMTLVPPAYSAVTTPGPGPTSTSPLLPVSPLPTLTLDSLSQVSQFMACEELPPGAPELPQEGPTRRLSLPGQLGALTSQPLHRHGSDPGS

Compared with `CN(CCc1ccccn1)C(=O)CC1C(=O)NCCN1Cc1ccccc1C(F)(F)F` (stereo not shown), `Oc1c(CN2CCOCC2)cc(COCc2ccccc2)c2cccnc12` is lower in “hERG current change (%, negative = inhibition) at 1uM” value: 4.75% for the first, -1.59% for the second.

Going from `CCCCCn1c(N2CCN(c3cccc(Cl)c3)CC2)nc2c1c(=O)[nH]c(=O)n2C` to `CCCCn1c(N)c(N(CC(C)C)C(=O)C2CC(=O)N(c3ccc(C)cc3)C2)c(=O)[nH]c1=O` (stereo not shown), the “hERG current change (%, negative = inhibition) at 1uM” value rises from -3.22% to 15.7%.

Compared with `CCCCOc1ccc(C(=O)Nc2ccc(S(=O)(=O)Nc3cc(C)on3)cc2)cc1OC`, `COc1ccc(S(=O)(=O)Cc2ccc(C(=O)NCc3ccco3)o2)cc1` is lower in “hERG current change (%, negative = inhibition) at 1uM” value: 17.1% for the first, -15.4% for the second.

Going from `CC1CCN(CC(=O)Nc2sc3c(c2C#N)CCC3)CC1` to `Cc1cc(NC(=O)CSc2nc3sc4c(c3c(=O)n2C)CCCC4)no1`, the “hERG current change (%, negative = inhibition) at 1uM” value rises from 9.88% to 12.5%.

First: O=C(NCCNc1cc(Cl)ccc1[N+](=O)[O-])c1ccco1
Second: COc1cccc(NC(=O)N2CCCC2C(=O)NCc2ccc(Cl)cc2)c1 (stereo not shown)
The “hERG current change (%, negative = inhibition) at 1uM” value of the first is higher: 5.19% for the first, -5.51% for the second.

Compared with `CCN(CC)C(=O)c1[nH]cnc1C(=O)N[C@@H](C)C(=O)OC(C)(C)C`, `CC(C)(C)OC(=O)Cn1c(=O)cnc2ccccc21` is higher in “hERG current change (%, negative = inhibition) at 1uM” value: 11.3% for the first, 13.9% for the second.

First: COc1ccc(/C=C(\NC(=O)c2ccco2)C(=O)Nc2ccc(C(C)=O)cc2)cc1
Second: Cc1ccc(C(=O)N/C(=C\c2ccc(F)cc2)C(=O)NCCN2CCOCC2)cc1
The “hERG current change (%, negative = inhibition) at 1uM” value of the first is higher: 15.6% for the first, -79.1% for the second.

First: c1nc(NC2CCCC2)c2[nH]cnc2n1
Second: Cc1cccc(N(C(=O)c2csnn2)C(C(=O)NC2CCCCC2)c2ccccn2)c1C (stereo not shown)
The “hERG current change (%, negative = inhibition) at 1uM” value of the first is lower: 5.57% for the first, 12% for the second.

First: COc1cc(OC)c(NC(=O)Nc2ccc(OC)c(OC)c2)cc1Cl
Second: COc1ccc(NC(=O)CSc2ccc(-c3sc(C)nc3C)nn2)cc1OC
The “hERG current change (%, negative = inhibition) at 1uM” value of the first is higher: 9.3% for the first, 5.05% for the second.

Compared with `O=C1CCC(c2ccccc2)c2ccccc21` (stereo not shown), `C/C(O)=C(/C=Nc1ccccc1)C(=O)Nc1ccccc1` is lower in “hERG current change (%, negative = inhibition) at 1uM” value: 11.3% for the first, 8.99% for the second.

Compared with `COc1ccc(CCC(=O)N(C)CC(=O)Nc2cc(C)ccc2C)cc1`, `COc1ccc(NC(=O)NCc2cccnc2)c(OC)c1` is higher in “hERG current change (%, negative = inhibition) at 1uM” value: 5.79% for the first, 13% for the second.

Going from `O=C(c1cccc(NS(=O)(=O)c2ccc(F)c(F)c2)c1)N1CCN(C(c2ccccc2)c2ccccc2)CC1` to `O=C(O)c1ccc(NS(=O)(=O)c2ccc3c(c2)OCCO3)cc1`, the “hERG current change (%, negative = inhibition) at 1uM” value falls from -3.46% to -11%.

First: N#Cc1cccc(Nc2c3c(nc4ccccc24)CCCC3)c1
Second: Cc1c(N)cccc1-c1nc2ccccc2[nH]1
The “hERG current change (%, negative = inhibition) at 1uM” value of the first is lower: -60.5% for the first, 19.2% for the second.

First: C=CCOc1c(Br)cc(/C=N/Nc2ccc(C(=O)O)cc2)cc1OCC
Second: O=C(O)c1ccc(COc2c(F)c(F)cc(F)c2F)cc1
The “hERG current change (%, negative = inhibition) at 1uM” value of the first is lower: -2.76% for the first, 10.1% for the second.

Going from `COc1ccc(NC2CCCN(C(=O)c3ccc(OC)cc3OC)C2)cc1` (stereo not shown) to `COc1ccccc1N1CCN(CCNC(=O)Nc2cccc(C)c2C)CC1`, the “hERG current change (%, negative = inhibition) at 1uM” value falls from 4.7% to 0.664%.

Compared with `CCN(CC)S(=O)(=O)c1ccc(N2CCOCC2)c(NC(=O)C2=COCCO2)c1`, `Cc1ccc(S(=O)(=O)N2CCC(C(=O)C3C(=O)CCCC3=O)CC2)cc1` is lower in “hERG current change (%, negative = inhibition) at 1uM” value: 8.31% for the first, 6.14% for the second.

Going from `N#CC1=C(N)Oc2nc[nH]c(=O)c2C1c1cccs1` (stereo not shown) to `Nc1nnc(SCC(=O)Nc2cccc(S(N)(=O)=O)c2)s1`, the “hERG current change (%, negative = inhibition) at 1uM” value falls from 17.3% to 0.79%.

Compared with `CCNC(=S)NNC(=O)Nc1ccccc1`, `CCOC(=O)CSc1nc(-c2ccccc2)nc2ccc(F)cc12` is higher in “hERG current change (%, negative = inhibition) at 1uM” value: 5.4% for the first, 19.4% for the second.

Compared with `COc1ccc(C2=NN(c3ccccc3)C(c3cn(CCC(=O)O)nc3-c3ccccc3)C2)cc1` (stereo not shown), `COn1c(=O)c(-c2ccc(C)cc2)[n+]([O-])c2ccccc21` is higher in “hERG current change (%, negative = inhibition) at 1uM” value: 1.4% for the first, 18.3% for the second.

Going from `CNCC(=O)N(CC(C)C)c1c(N)n(CC(C)C)c(=O)[nH]c1=O` to `COc1cc2c(C(=O)NCc3ccc(C)o3)cn(CC(C)C)c(=O)c2cc1OC`, the “hERG current change (%, negative = inhibition) at 1uM” value falls from 14.7% to 9.34%.

Going from `COC(=O)C1=C(C)NC(C)=C(C(=O)OC)C1c1ccc(C)o1` to `COCc1cc(OC(=O)N(C)C)nc(-c2ccc(C)c(Cl)c2)n1`, the “hERG current change (%, negative = inhibition) at 1uM” value rises from 13.6% to 15.6%.

Compared with `COc1ccccc1C(=O)Nc1ccnn1C1CCN(C(C)CSC)CC1` (stereo not shown), `Cc1ccccc1-n1c(C)nnc1SCC(=O)N(C)C1CCS(=O)(=O)C1` (stereo not shown) is higher in “hERG current change (%, negative = inhibition) at 1uM” value: -10.6% for the first, 15.3% for the second.

First: CCN(CC)c1ccc(C(=O)OCc2cc(=O)oc3cc(O)ccc23)cc1
Second: Cc1ccc(-c2nn(CC(N)=O)c(=O)c3ccccc23)cc1S(=O)(=O)N(C)C
The “hERG current change (%, negative = inhibition) at 1uM” value of the first is higher: 4.83% for the first, 1.21% for the second.

Going from `CCOC(=O)N1CCN(C(=O)CSc2nnc(CNC(=O)c3c(F)cccc3Cl)o2)CC1` to `O=C(c1ccc2c(c1)OCCO2)N1CCN(Cc2c(F)cccc2Cl)CC1`, the “hERG current change (%, negative = inhibition) at 1uM” value falls from 6.57% to 1.92%.

Compared with `Cc1[nH]nc(-c2ccc(O)cc2O)c1-c1nc2ccccc2s1.O=C(O)C(=O)O`, `Cc1ccc(CN2CCN(Cc3cnn(-c4ccc(F)cc4)c3)CC2CCO)o1` (stereo not shown) is lower in “hERG current change (%, negative = inhibition) at 1uM” value: 10.4% for the first, -15.8% for the second.

Compared with `Cc1cccc(CN2CCN(Cc3nc4c(s3)CCCC4)CC2CCO)n1` (stereo not shown), `CCCN(CCC)CCCNC(=S)Nc1ccc2nc(N3CCCC3)cc(C)c2c1` is lower in “hERG current change (%, negative = inhibition) at 1uM” value: 1.31% for the first, -14.5% for the second.

Compared with `Cc1c(NC(=O)OC(C)C)sc(=S)n1C`, `C=CCN1C(=O)CSc2ccc(C(=O)OCC)cc21` is lower in “hERG current change (%, negative = inhibition) at 1uM” value: -0.475% for the first, -5.77% for the second.

First: O=C(CCSCCC(=O)N1CCCC1)N1CCCC1
Second: C=CCNC(=S)NNC(=O)CC12CC3CC(CC(C3)C1)C2
The “hERG current change (%, negative = inhibition) at 1uM” value of the first is higher: 22.3% for the first, 13% for the second.

Compared with `CCNc1nc(N)nc(Oc2ccc(OCC)nn2)n1`, `COc1ncnc(NS(=O)(=O)c2ccc(N)cc2)c1OC` is lower in “hERG current change (%, negative = inhibition) at 1uM” value: 13.5% for the first, -11.9% for the second.

Reference: article PMC4336329 (PLoS ONE, 2015)
